Results on 115 sequences are retold here after the BET-seq Pho4 binding data (Le et al. 2018).

The list shows a part of the results. These are noisy estimates, calculated here from bound and input reads.

The target in this experiment is T1, Pho4 (S. cerevisiae) (UniProt P07270).
T1 sequence: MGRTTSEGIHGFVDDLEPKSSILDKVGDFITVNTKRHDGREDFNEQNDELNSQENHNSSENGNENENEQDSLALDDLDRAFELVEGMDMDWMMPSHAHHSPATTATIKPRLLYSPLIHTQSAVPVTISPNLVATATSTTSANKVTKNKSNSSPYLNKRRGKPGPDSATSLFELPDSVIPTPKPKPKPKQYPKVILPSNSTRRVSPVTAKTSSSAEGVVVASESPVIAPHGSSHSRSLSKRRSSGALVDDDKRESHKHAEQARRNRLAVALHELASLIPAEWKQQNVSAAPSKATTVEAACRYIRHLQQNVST
Kind of experiment: relative binding free energy (BET-seq); higher = weaker binding. To be noted: reference: library average.
For the sequence GGTTTCACGTGGACAA, the “relative binding free energy” value turned out to be 0.5 kcal/mol.

Take GAGGTCACGTGAGGTT: the “relative binding free energy” value was 0.32 kcal/mol.

For GTTAGCACGTGATGTG, the “relative binding free energy” value worked out at 0.1 kcal/mol.

As to GAGTCCACGTGTGTGG, the “relative binding free energy” value is 0.07 kcal/mol.

ATAGGCACGTGGATTA: the “relative binding free energy” value was -0.08 kcal/mol.

As for CTAGTCACGTGGTTTA, the “relative binding free energy” value was -0.02 kcal/mol.

For the sequence ATCATCACGTGGGGGT, the “relative binding free energy” value is -0.08 kcal/mol.

Turning to CGTTGCACGTGTTACG, the “relative binding free energy” value is -0.08 kcal/mol.

In the case of TTTGCCACGTGCGAGG, the “relative binding free energy” value is -0.09 kcal/mol.

Turning to TACGTCACGTGGGGTT, the “relative binding free energy” value is -0.03 kcal/mol.

Regarding GTCTACACGTGTGTTA, the “relative binding free energy” value stood at 0.24 kcal/mol.

TTTGACACGTGAGCTT: the “relative binding free energy” value was determined as 0.11 kcal/mol.

On to ATTAACACGTGAATTG, for which the “relative binding free energy” value was determined as 0.2 kcal/mol.

Regarding AGGAGCACGTGTGTTG, the “relative binding free energy” value was -0.18 kcal/mol.

In the case of ATGCACACGTGTGCGG, the “relative binding free energy” value was found to be 0.04 kcal/mol.

Turning to GTGCTCACGTGTTGTG, the “relative binding free energy” value was 0.18 kcal/mol.

In the case of GTTTGCACGTGTTCGA, the “relative binding free energy” value was -0.06 kcal/mol.

On to GGGGTCACGTGAGGAG, for which the “relative binding free energy” value worked out at 0.36 kcal/mol.

Take CTATTCACGTGGTATG: the “relative binding free energy” value was found to be 0.12 kcal/mol.

On to TAGATCACGTGAGTAT, for which the “relative binding free energy” value was 0.22 kcal/mol.

On to TTTTGCACGTGGAATT, for which the “relative binding free energy” value was determined as 0.19 kcal/mol.

With TAGCGCACGTGAGTTT, the “relative binding free energy” value was found to be 0.12 kcal/mol.

For AAGTACACGTGGTCGG, the “relative binding free energy” value amounted to 0.05 kcal/mol.

In the case of GTGTGCACGTGATCGA, the “relative binding free energy” value worked out at 0.14 kcal/mol.

Take GGTGGCACGTGTTATC: the “relative binding free energy” value amounted to 0.09 kcal/mol.

For the sequence TTGGACACGTGGGGAG, the “relative binding free energy” value was -0.05 kcal/mol.

CCGGTCACGTGAGTGT: the “relative binding free energy” value is 0.16 kcal/mol.

Consider TAGGGCACGTGGGTCC, for which the “relative binding free energy” value is -0.22 kcal/mol.

For GTATTCACGTGGGCGA, the “relative binding free energy” value was determined as 0.1 kcal/mol.

Regarding GGGCGCACGTGTTGGC, the “relative binding free energy” value turned out to be 0.1 kcal/mol.

With TTCGGCACGTGGTGCT, the “relative binding free energy” value is -0.23 kcal/mol.

Turning to GTTGTCACGTGGTCGC, the “relative binding free energy” value came out at 0.1 kcal/mol.

For the sequence AAAGTCACGTGTGTGT, the “relative binding free energy” value was found to be 0.18 kcal/mol.

Regarding CTACTCACGTGTGTGT, the “relative binding free energy” value is 0.24 kcal/mol.

As for AATTTCACGTGTATTA, the “relative binding free energy” value worked out at 0.11 kcal/mol.

Consider TGAGGCACGTGTATTA, for which the “relative binding free energy” value is -0.01 kcal/mol.

For TTAGACACGTGGGTTC, the “relative binding free energy” value worked out at 0.03 kcal/mol.

For the sequence GGTTGCACGTGAGTTG, the “relative binding free energy” value was determined as 0.2 kcal/mol.

As to TAGTACACGTGTTTGT, the “relative binding free energy” value was 0.02 kcal/mol.

Regarding TAGGTCACGTGGTTAG, the “relative binding free energy” value was 0.02 kcal/mol.

Consider CTATTCACGTGGGCTG, for which the “relative binding free energy” value came out at 0.19 kcal/mol.

In the case of CGGGTCACGTGTCTGG, the “relative binding free energy” value came to 0.19 kcal/mol.

Consider TTGTCCACGTGGTATT, for which the “relative binding free energy” value is -0.11 kcal/mol.

Take CTTTGCACGTGGGGGG: the “relative binding free energy” value was -0.11 kcal/mol.

Consider GTCAGCACGTGTTAGG, for which the “relative binding free energy” value stood at 0.12 kcal/mol.

In the case of AGAGGCACGTGATATT, the “relative binding free energy” value was -0.11 kcal/mol.

Consider CTTTTCACGTGTCGGA, for which the “relative binding free energy” value stood at 0.31 kcal/mol.

Consider CGGGTCACGTGGGCGC, for which the “relative binding free energy” value stood at 0.01 kcal/mol.

As to TGGTACACGTGTGAGT, the “relative binding free energy” value was found to be 0.15 kcal/mol.

As for GTGCGCACGTGGGAGC, the “relative binding free energy” value was found to be 0.02 kcal/mol.

For TAGGTCACGTGCGTTG, the “relative binding free energy” value worked out at 0.07 kcal/mol.

Regarding ATTCGCACGTGCAGGT, the “relative binding free energy” value is -0.04 kcal/mol.

For the sequence GGCTTCACGTGAGGCG, the “relative binding free energy” value was found to be 0.45 kcal/mol.

AGTATCACGTGAGGAT: the “relative binding free energy” value came out at 0.41 kcal/mol.

As for TGGTCCACGTGGTGTA, the “relative binding free energy” value was determined as 0.01 kcal/mol.

As to TGGCTCACGTGTAATT, the “relative binding free energy” value was determined as 0.33 kcal/mol.

Regarding CACTTCACGTGGGGGG, the “relative binding free energy” value was 0.14 kcal/mol.

With CTTGTCACGTGCTTTT, the “relative binding free energy” value stood at 0.03 kcal/mol.

Consider GGCGGCACGTGTGGTG, for which the “relative binding free energy” value is 0.04 kcal/mol.

Consider GGGAGCACGTGGAATT, for which the “relative binding free energy” value worked out at 0.07 kcal/mol.

For CGGTTCACGTGGAGGC, the “relative binding free energy” value is 0.31 kcal/mol.

Regarding TATTACACGTGATTCT, the “relative binding free energy” value amounted to 0.13 kcal/mol.

Consider TGTGGCACGTGTCTTT, for which the “relative binding free energy” value is -0.06 kcal/mol.

Consider CTGTACACGTGTTAAA, for which the “relative binding free energy” value came to 0.31 kcal/mol.

For TGGCTCACGTGAGGTG, the “relative binding free energy” value was 0.45 kcal/mol.

In the case of ATGGCCACGTGCGAGG, the “relative binding free energy” value turned out to be 0.04 kcal/mol.

As for GGCGTCACGTGGGAGG, the “relative binding free energy” value came to 0.06 kcal/mol.

Consider ACTGGCACGTGTAAAG, for which the “relative binding free energy” value is 0.21 kcal/mol.

For the sequence TTCGGCACGTGAGGAG, the “relative binding free energy” value came to 0.1 kcal/mol.

As for AATTACACGTGTCTTG, the “relative binding free energy” value stood at 0.19 kcal/mol.

With TTCTTCACGTGGAGTC, the “relative binding free energy” value stood at 0.33 kcal/mol.

In the case of TATCACACGTGTTTAG, the “relative binding free energy” value worked out at 0.24 kcal/mol.

AGCATCACGTGATAGG: the “relative binding free energy” value was 0.28 kcal/mol.

Regarding AGTAGCACGTGTTCGA, the “relative binding free energy” value was -0.09 kcal/mol.

For the sequence GTGTACACGTGAATGA, the “relative binding free energy” value was 0.24 kcal/mol.

Take TGCAGCACGTGATTTG: the “relative binding free energy” value amounted to 0.09 kcal/mol.

ATCTGCACGTGTGTGT: the “relative binding free energy” value amounted to 0 kcal/mol.

For the sequence CTTTGCACGTGAGGGG, the “relative binding free energy” value was determined as 0.14 kcal/mol.

As to TTGATCACGTGTGATG, the “relative binding free energy” value stood at 0.19 kcal/mol.

GGTGTCACGTGCCAGG: the “relative binding free energy” value was -0.04 kcal/mol.

As for AAATACACGTGTGAGG, the “relative binding free energy” value came to 0.16 kcal/mol.

Consider ATTCGCACGTGGAGTG, for which the “relative binding free energy” value was -0.27 kcal/mol.

As to AAGCGCACGTGGTATT, the “relative binding free energy” value is -0.11 kcal/mol.

Take TATCCCACGTGGGGGT: the “relative binding free energy” value was -0.26 kcal/mol.

Regarding TAGCTCACGTGATGGT, the “relative binding free energy” value was 0.47 kcal/mol.

For CGGGGCACGTGTTTCG, the “relative binding free energy” value is -0.15 kcal/mol.

GTTCTCACGTGGAGAT: the “relative binding free energy” value is 0.35 kcal/mol.

As for TGTTGCACGTGGGATT, the “relative binding free energy” value was -0.1 kcal/mol.

For the sequence TTACTCACGTGTGTTA, the “relative binding free energy” value turned out to be 0.09 kcal/mol.

As for GTTGTCACGTGCTTGG, the “relative binding free energy” value stood at 0.04 kcal/mol.

In the case of TTAGTCACGTGCTGGT, the “relative binding free energy” value worked out at 0.01 kcal/mol.

As to TGTTCCACGTGGGCTG, the “relative binding free energy” value is -0.11 kcal/mol.

Take GTGTACACGTGGGGCC: the “relative binding free energy” value is -0.09 kcal/mol.

TCGGTCACGTGTATGA: the “relative binding free energy” value was -0.01 kcal/mol.

Turning to AGAAGCACGTGATATG, the “relative binding free energy” value was 0.06 kcal/mol.

With CAGGGCACGTGGGTTT, the “relative binding free energy” value is -0.22 kcal/mol.

For TAAGGCACGTGTAGTC, the “relative binding free energy” value was -0.03 kcal/mol.

Take TTTTTCACGTGGTCGG: the “relative binding free energy” value came out at 0.34 kcal/mol.

On to GGTTTCACGTGAATTG, for which the “relative binding free energy” value amounted to 0.44 kcal/mol.

As to TTCGGCACGTGTATGT, the “relative binding free energy” value was -0.1 kcal/mol.

Consider TGTTTCACGTGGCGTG, for which the “relative binding free energy” value stood at 0.21 kcal/mol.

With AGCAGCACGTGTGGGA, the “relative binding free energy” value is -0.14 kcal/mol.

As to TACTGCACGTGTCGTT, the “relative binding free energy” value came to 0.09 kcal/mol.

As to CTGTGCACGTGGTTTG, the “relative binding free energy” value is -0.16 kcal/mol.

Take AGTACCACGTGTGTGT: the “relative binding free energy” value is -0.1 kcal/mol.

For GTCGTCACGTGGCTTG, the “relative binding free energy” value was 0.1 kcal/mol.

In the case of TGTTTCACGTGGAATC, the “relative binding free energy” value stood at 0.25 kcal/mol.

With ATTTTCACGTGTCATT, the “relative binding free energy” value is 0.32 kcal/mol.

Turning to TGGGACACGTGAGATG, the “relative binding free energy” value turned out to be 0.11 kcal/mol.

For the sequence ATGTGCACGTGGGTTC, the “relative binding free energy” value is -0.15 kcal/mol.

Turning to TGGGACACGTGTGCGG, the “relative binding free energy” value is -0.02 kcal/mol.

Turning to AGGTTCACGTGAAGTT, the “relative binding free energy” value stood at 0.31 kcal/mol.

On to GATTTCACGTGTGTAC, for which the “relative binding free energy” value was 0.29 kcal/mol.

CGTCGCACGTGTTTTT: the “relative binding free energy” value is 0.12 kcal/mol.

As to TACGTCACGTGGAATG, the “relative binding free energy” value was 0.22 kcal/mol.
